Assay results as given in PubChem BioAssay AID1347165 (National Center for Advancing Translational Sciences (NCATS), 2019).
About 5,700 (2.6%) of roughly 220,000 compounds were called active. Inconclusive means that the source gave no clear call. Such entries were picked first, then a sample of the others. The call rests on the fitted dose curve; in most records, active means well fitted inhibition curve with a large enough effect; inconclusive means small, poorly fitted or top-dose-only effect; inactive means no such curve, though single readings can be large or run the other way. Potencies beside an inconclusive call are fits to weak or partial responses and may not hold up.

The molecules below were run against Lysine-specific demethylase 5B (Homo sapiens) (UniProt Q9UGL1) (assay: Primary screen for KDM5B Histone Demethylases FDH-coupled qHTS). Conditions: FDH-coupled NADH fluorescence (FDH is formaldehyde dehydrogenase); activity change, negative = inhibition: at 57.7 µM (top of the series) unless noted.
In short: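 Compound dilutions met 200 nM (final) KDM5BΔAP for 10 min at room temperature before substrate addition. The substrate mix held 12.5 µM H3K4me3 with cofactors 25 µM α-ketoglutarate and 50 µM Fe²⁺. NADH signal gain over 30 min defined activity.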
Further: nearly all actives have a fitted effect of over 70% in size.
Potency means the concentration at half of the fitted maximal effect; tags describe the fitted curve by direction and shape.
Wherever activity change, negative = inhibition is given: 0% is about no effect.

Chain of UniProt Q9UGL1 (Q9UGL1 whole entry, looked up): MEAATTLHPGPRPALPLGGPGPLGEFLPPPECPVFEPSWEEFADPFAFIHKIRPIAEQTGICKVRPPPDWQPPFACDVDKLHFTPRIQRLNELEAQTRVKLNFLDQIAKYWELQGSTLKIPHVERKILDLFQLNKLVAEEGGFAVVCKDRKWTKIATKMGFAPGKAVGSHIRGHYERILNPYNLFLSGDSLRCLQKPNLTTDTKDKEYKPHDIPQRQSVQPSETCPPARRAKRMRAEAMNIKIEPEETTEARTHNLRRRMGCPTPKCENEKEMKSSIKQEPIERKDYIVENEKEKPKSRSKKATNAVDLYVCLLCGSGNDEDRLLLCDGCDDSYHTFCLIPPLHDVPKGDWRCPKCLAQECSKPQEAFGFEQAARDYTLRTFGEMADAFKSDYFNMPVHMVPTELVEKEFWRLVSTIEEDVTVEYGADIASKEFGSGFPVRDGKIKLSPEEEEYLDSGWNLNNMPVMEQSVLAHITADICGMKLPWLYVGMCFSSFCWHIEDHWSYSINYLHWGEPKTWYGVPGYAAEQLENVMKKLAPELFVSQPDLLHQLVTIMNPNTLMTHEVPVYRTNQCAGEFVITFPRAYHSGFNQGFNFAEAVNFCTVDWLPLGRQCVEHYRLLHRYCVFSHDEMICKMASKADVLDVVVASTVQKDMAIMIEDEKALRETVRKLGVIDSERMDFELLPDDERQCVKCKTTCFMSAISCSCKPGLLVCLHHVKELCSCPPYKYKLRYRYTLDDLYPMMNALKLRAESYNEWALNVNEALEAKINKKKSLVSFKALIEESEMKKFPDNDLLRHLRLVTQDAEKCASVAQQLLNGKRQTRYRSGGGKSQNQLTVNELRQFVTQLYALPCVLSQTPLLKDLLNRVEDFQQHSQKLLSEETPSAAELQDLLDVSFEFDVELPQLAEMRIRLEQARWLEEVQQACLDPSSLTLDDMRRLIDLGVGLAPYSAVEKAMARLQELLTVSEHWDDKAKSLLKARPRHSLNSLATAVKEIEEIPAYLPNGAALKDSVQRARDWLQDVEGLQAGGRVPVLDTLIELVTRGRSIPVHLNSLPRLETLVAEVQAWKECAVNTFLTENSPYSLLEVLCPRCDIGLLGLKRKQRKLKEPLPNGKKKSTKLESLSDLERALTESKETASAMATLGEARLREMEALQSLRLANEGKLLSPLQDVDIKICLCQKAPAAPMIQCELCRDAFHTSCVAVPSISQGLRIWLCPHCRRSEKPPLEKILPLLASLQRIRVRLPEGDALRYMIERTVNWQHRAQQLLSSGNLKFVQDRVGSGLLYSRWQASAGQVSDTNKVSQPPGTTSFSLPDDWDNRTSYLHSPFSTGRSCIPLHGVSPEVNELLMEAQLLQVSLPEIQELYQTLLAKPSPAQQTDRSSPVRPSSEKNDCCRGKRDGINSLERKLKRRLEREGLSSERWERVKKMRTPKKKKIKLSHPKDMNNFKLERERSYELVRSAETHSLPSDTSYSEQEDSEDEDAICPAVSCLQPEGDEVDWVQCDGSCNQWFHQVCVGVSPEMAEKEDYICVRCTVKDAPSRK

SMILES | activity change, negative = inhibition | Potency
CC(=O)Nc1ccc(S(=O)(=O)[C@H]2CS(=O)(=O)C[C@@H]2N2CCN(C(C)=O)CC2)cc1 | inactive: 13.1% | 
O=C(OCC(=O)N(/N=C/c1ccccc1)c1cccc(C(F)(F)F)c1)c1cc(Cl)ccc1[N+](=O)[O-] | inactive: -12% | 
CCc1nc2ccc(C(=O)NCc3cc(OC)ccc3OC)cc2nc1CC |  | inconclusive: 17.8 µM [inhibitor, partial curve, poor fit]
CNc1nc(-c2sc3ccccc3c2C)cs1 |  | inconclusive: 39.8 µM [inhibitor, single point]
CCc1ccc(CNc2ccc3c(c2)ncn3C(C)(C)C)cc1 |  | inconclusive: 25.1 µM [inhibitor, partial curve, poor fit]
COc1ccc2c(C)c(CC(=O)NCCN3CCOCC3)c(=O)oc2c1C |  | inconclusive: 1 µM [inhibitor, full curve, poor fit]
COc1cccc2c1cc1c(=O)n(CC(=O)N3CCN(c4ccccc4)CC3)nc(C)n12 |  | inconclusive: 35.5 µM [inhibitor, single point]
CCOC(=O)C1CCCN(C(=O)c2ccc3c(c2)sc2nc(-c4ccc(CC)cc4)cn23)C1 (stereo not drawn) |  | inconclusive: 3.55 µM [inhibitor, full curve, poor fit]
Cc1ccc(CNC(=O)C(C)n2nc(C)n3c(cc4sccc43)c2=O)cc1 (stereo not drawn) | inactive: -6.47% | 
CCOC(=O)c1ccc(N2C(=O)c3n[nH]c(-c4ccco4)c3C2c2cccc(OC)c2)cc1 (stereo not drawn) |  | inconclusive: 15.8 µM [inhibitor, partial curve, poor fit]
COc1ccc2nc([C@H]3CCN(CCCc4ccccc4)C3)[nH]c2c1 |  | inconclusive: 35.5 µM [inhibitor, single point]
COc1ccc(C(=O)CSc2nnc(CNC(=O)c3ccccc3F)n2C)cc1OC | inactive: -12.6% | 
COCCCNC(=O)c1ccc(-c2nc(CS(=O)(=O)c3ccc(C)cc3)c(C)o2)cc1 |  | inconclusive: 31.6 µM [inhibitor, partial curve, poor fit]
Cc1oc(-c2ccc(C(=O)NCc3cccc(F)c3)cc2)nc1COc1ccccc1 |  | inconclusive: 17.8 µM [inhibitor, single point]
CCc1noc(-c2nc(Cc3ccccc3C)no2)n1 | inactive: 6.84% | 
Cc1cn(CC(=O)N2CCc3nc(-c4cn[nH]c4)[nH]c3C2)c(=O)[nH]c1=O | inactive: -18.6% | 
Cc1cccc(-c2nc(C)c(CCNC(=O)C(=O)Nc3ccccc3C#N)s2)c1 |  | inconclusive: 1 µM [inhibitor, full curve, poor fit]
O=C(Cc1ccccc1)NNC(=S)NC(=O)c1cccs1 |  | inconclusive: 39.8 µM [inhibitor, single point]
